Results from the supplement of paper PMC6206098.
± gives the uncertainty stated by the source. The sequences are guide strands of siRNAs; only the seed at positions 2 to 7 varies.

Legend:
HeyA8 = assay: cell viability relative to lipid-only control; higher = less toxic; conditions: concentration: 10 nM; 96 h; Homo sapiens
H460 = assay: as above; conditions: concentration: 10 nM; 96 h; Homo sapiens
M565 = assay: as above; conditions: concentration: 10 nM; 96 h; Mus musculus
3LL = assay: cell viability relative to siNT1 control; HeyA8 human ovarian and H460 human lung cancer; M565 mouse liver and 3LL mouse lung cancer; siNT1 is a non-toxic control siRNA; higher = less toxic; conditions: concentration: 10 nM; 96 h; Mus musculus
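Wherever cell viability relative to lipid-only control is given: reverse lipid transfection in 384-well plates, in triplicate, of duplexes on a non-toxic 19mer backbone with passenger strand 2′-O-methylated at positions 1 and 2, luminescence viability read-out.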
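Wherever cell viability relative to siNT1 control is given: Luminescence-based viability of cells reverse transfected in 384-well plates with lipid-complexed siRNAs built on a non-toxic 19mer backbone whose passenger strand carries 2′-O-methyl groups at positions 1 and 2, triplicates.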

UUCGGAAACAUGUAAACCAAA gave a cell viability (HeyA8) of 77.3 ± 3.7%, a cell viability (H460) of 92.6 ± 13% and a cell viability (M565) of 77.4 ± 7.4%. The cell viability (3LL) was 105 ± 14%.
Sequence UUCGGACACAUGUAAACCAAA has a cell viability (HeyA8) of 51.1 ± 4.5%, a cell viability (H460) of 39.8 ± 3.5% and a cell viability (M565) of 41.6 ± 4.7%. The cell viability (3LL) was 10.8 ± 5.4%.
Sequence UUCGGAGACAUGUAAACCAAA has a cell viability (HeyA8) of 70.6 ± 10%, a cell viability (H460) of 80.9 ± 10% and a cell viability (M565) of 49.3 ± 5.7%. It also gave a cell viability (3LL) of 75.5 ± 16%.
For UUCGGAUACAUGUAAACCAAA, the cell viability (HeyA8) was 64.1 ± 6.7%, the cell viability (H460) was 62 ± 10% and the cell viability (M565) was 68.1 ± 12%. The cell viability (3LL) was 44.6 ± 10%.
In the case of UUCGGCAACAUGUAAACCAAA, the cell viability (HeyA8) is reported as 77.5 ± 11%, the cell viability (H460) is reported as 81.6 ± 4.6% and the cell viability (M565) is reported as 84.1 ± 6.9%. It also gave a cell viability (3LL) of 99.1 ± 18%.
In the case of UUCGGCCACAUGUAAACCAAA, the cell viability (HeyA8) is reported as 46.1 ± 3%, the cell viability (H460) is reported as 36.5 ± 3.2% and the cell viability (M565) is reported as 45.1 ± 2.6%. The cell viability (3LL) was 19.6 ± 7.2%.
UUCGGCGACAUGUAAACCAAA gave a cell viability (HeyA8) of 78.4 ± 6.6%, a cell viability (H460) of 76.2 ± 4.2% and a cell viability (M565) of 63.7 ± 3.5%. For the same sequence, the cell viability (3LL) was 84.8 ± 15%.
Work on UUCGGCUACAUGUAAACCAAA yielded a cell viability (HeyA8) of 50.7 ± 10%, a cell viability (H460) of 52.8 ± 0.8% and a cell viability (M565) of 63 ± 2.7%. It also gave a cell viability (3LL) of 96.4 ± 9.2%.
With UUCGGGAACAUGUAAACCAAA the cell viability (HeyA8) was 87.1 ± 10%, the cell viability (H460) was 73.1 ± 8.3% and the cell viability (M565) was 75.9 ± 3.2%. It also gave a cell viability (3LL) of 98 ± 20%.
Sequence UUCGGGCACAUGUAAACCAAA has a cell viability (HeyA8) of 8.64 ± 1.6%, a cell viability (H460) of 12.3 ± 1.6% and a cell viability (M565) of 15.4 ± 1.4%. The cell viability (3LL) was 2.45 ± 0.1%.
With UUCGGGGACAUGUAAACCAAA the cell viability (HeyA8) was 65.6 ± 7%, the cell viability (H460) was 19.5 ± 1.2% and the cell viability (M565) was 133 ± 24%. For the same sequence, the cell viability (3LL) was 81.2 ± 7.6%.
Sequence UUCGGGUACAUGUAAACCAAA has a cell viability (HeyA8) of 67 ± 7.7%, a cell viability (H460) of 15.9 ± 2.6% and a cell viability (M565) of 28.4 ± 3.6%. It also gave a cell viability (3LL) of 2.67 ± 0.65%.
With UUCGGUAACAUGUAAACCAAA the cell viability (HeyA8) was 87.1 ± 12%, the cell viability (H460) was 75.8 ± 14% and the cell viability (M565) was 87.9 ± 6.1%. It also gave a cell viability (3LL) of 103 ± 14%.
In the case of UUCGGUCACAUGUAAACCAAA, the cell viability (HeyA8) is reported as 60.2 ± 6.4%, the cell viability (H460) is reported as 49 ± 5.3% and the cell viability (M565) is reported as 45.7 ± 0.61%. It also gave a cell viability (3LL) of 37.7 ± 5.2%.
UUCGGUGACAUGUAAACCAAA was tested, and the cell viability (HeyA8) was 90.3 ± 12%, the cell viability (H460) was 67 ± 6.3% and the cell viability (M565) was 70.7 ± 4.8%. The cell viability (3LL) was 86.2 ± 15%.
For UUCGGUUACAUGUAAACCAAA, the cell viability (HeyA8) was 72.5 ± 9.7%, the cell viability (H460) was 63.8 ± 0.82% and the cell viability (M565) was 80.4 ± 12%. The cell viability (3LL) was 88.9 ± 17%.
Work on UUCGUAAACAUGUAAACCAAA yielded a cell viability (HeyA8) of 96 ± 12%, a cell viability (H460) of 75.4 ± 4.7% and a cell viability (M565) of 94.4 ± 5%. The cell viability (3LL) was 112 ± 20%.
UUCGUACACAUGUAAACCAAA gave a cell viability (HeyA8) of 72.2 ± 4.8%, a cell viability (H460) of 65.4 ± 15% and a cell viability (M565) of 46.9 ± 9.2%. It also gave a cell viability (3LL) of 74.1 ± 10%.
Sequence UUCGUAGACAUGUAAACCAAA has a cell viability (HeyA8) of 98.6 ± 15%, a cell viability (H460) of 90.7 ± 5.2% and a cell viability (M565) of 80.3 ± 8.9%. For the same sequence, the cell viability (3LL) was 104 ± 13%.
With UUCGUAUACAUGUAAACCAAA the cell viability (HeyA8) was 73.9 ± 10%, the cell viability (H460) was 61.2 ± 9.1% and the cell viability (M565) was 86 ± 3.5%. For the same sequence, the cell viability (3LL) was 101 ± 16%.
In the case of UUCGUCAACAUGUAAACCAAA, the cell viability (HeyA8) is reported as 93.5 ± 16%, the cell viability (H460) is reported as 76.1 ± 1.9% and the cell viability (M565) is reported as 75 ± 6.6%. It also gave a cell viability (3LL) of 105 ± 15%.
Work on UUCGUCCACAUGUAAACCAAA yielded a cell viability (HeyA8) of 39.4 ± 5.4%, a cell viability (H460) of 47.7 ± 3% and a cell viability (M565) of 51.9 ± 5.7%. The cell viability (3LL) was 30 ± 10%.
UUCGUCGACAUGUAAACCAAA was tested, and the cell viability (HeyA8) was 90.8 ± 14%, the cell viability (H460) was 72.3 ± 5.2% and the cell viability (M565) was 88.2 ± 16%. It also gave a cell viability (3LL) of 91.2 ± 14%.
With UUCGUCUACAUGUAAACCAAA the cell viability (HeyA8) was 39.4 ± 4.1%, the cell viability (H460) was 51.1 ± 4.9% and the cell viability (M565) was 53 ± 7.4%. The cell viability (3LL) was 68.4 ± 16%.
UUCGUGAACAUGUAAACCAAA showed a cell viability (HeyA8) of 90.3 ± 7%, a cell viability (H460) of 69.9 ± 11% and a cell viability (M565) of 97.3 ± 9.8%. The cell viability (3LL) was 95.4 ± 21%.
UUCGUGCACAUGUAAACCAAA showed a cell viability (HeyA8) of 8.93 ± 0.92%, a cell viability (H460) of 20.4 ± 1.7% and a cell viability (M565) of 31.5 ± 3.7%. For the same sequence, the cell viability (3LL) was 28.5 ± 8.3%.
With UUCGUGGACAUGUAAACCAAA the cell viability (HeyA8) was 50.1 ± 10%, the cell viability (H460) was 49.7 ± 5% and the cell viability (M565) was 46 ± 6.7%. For the same sequence, the cell viability (3LL) was 78.8 ± 14%.
With UUCGUGUACAUGUAAACCAAA the cell viability (HeyA8) was 89.9 ± 14%, the cell viability (H460) was 70.6 ± 9.1% and the cell viability (M565) was 32.7 ± 4.8%. For the same sequence, the cell viability (3LL) was 84.2 ± 15%.
Sequence UUCGUUAACAUGUAAACCAAA has a cell viability (HeyA8) of 93.7 ± 12%, a cell viability (H460) of 69.7 ± 11% and a cell viability (M565) of 91.3 ± 3.5%. The cell viability (3LL) was 100 ± 22%.
With UUCGUUCACAUGUAAACCAAA the cell viability (HeyA8) was 59.1 ± 5.2%, the cell viability (H460) was 61.7 ± 0.74% and the cell viability (M565) was 32.9 ± 2.8%. For the same sequence, the cell viability (3LL) was 66.1 ± 14%.
